# This is one part of the list.
# B1: rAAL-I144G (Agrocybe aegerita), Q6WY08 (protein)
# chain: MQGVNIYNISAGTSVDLAAPVTTGDIVTFFSSALNLNAGAGNPNNTTLNLFAENGAYLLHIAFRLQENVIIFNSRQPDGPWLVEQRVSDVANQFAGIDGKAMVTVFDHGDKYQVVINEKTVIQYTKQISGLTLSLSYNATEETSGFSTVVEAVTYTGLALEHHHHHH
# Columns and labels:
# Experiment in all cases: glycan array binding signal (z-score within array); higher = stronger binding
# Conditions in all cases: glycan notation: IUPAC condensed, linker removed; mutation: I144G
# [1] = biological target: Fuc(a1-2)[GalNAc(a1-3)]Gal(b1-3)GlcNAc(b1-3)GalNAc
# Procedure, shortened: (§1)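 From the Consortium for Functional Glycomics database, 3228 arrays were curated, keeping only those whose protein sequence was available. Binding is given as a within-array Z-score averaged across arrays sharing a protein sequence and across linkers. Negative Z-scores can be read as non-binding.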
# [2] = biological target: Fuc(a1-2)[GalNAc(a1-3)]Gal(b1-3)GlcNAc(b1-6)GalNAc
# Procedure, shortened: as §1
# [3] = biological target: Fuc(a1-2)[GalNAc(a1-3)]Gal(b1-4)Glc
# Procedure, shortened: as §1
# [4] = biological target: Fuc(a1-2)[GalNAc(a1-3)]Gal(b1-4)GlcNAc
# Procedure, shortened: as §1
# [5] = biological target: Fuc(a1-2)[GalNAc(a1-3)]Gal(b1-4)GlcNAc(b1-2)Man
# Procedure, shortened: as §1
# [6] = biological target: Fuc(a1-2)[GalNAc(a1-3)]Gal(b1-4)GlcNAc(b1-2)Man(a1-3)[Fuc(a1-2)[GalNAc(a1-3)]Gal(b1-4)GlcNAc(b1-2)Man(a1-6)]Man(b1-4)GlcNAc(b1-4)GlcNAc
# Procedure, shortened: as §1
# [7] = biological target: Fuc(a1-2)[GalNAc(a1-3)]Gal(b1-4)GlcNAc(b1-2)Man(a1-3)[Fuc(a1-2)[GalNAc(a1-3)]Gal(b1-4)GlcNAc(b1-2)Man(a1-6)]Man(b1-4)GlcNAc(b1-4)[Fuc(a1-6)]GlcNAc
# Procedure, shortened: as §1
# [8] = biological target: Fuc(a1-2)[GalNAc(a1-3)]Gal(b1-4)GlcNAc(b1-3)Gal(b1-4)GlcNAc
# Procedure, shortened: as §1
# [9] = biological target: Fuc(a1-2)[GalNAc(a1-3)]Gal(b1-4)GlcNAc(b1-3)Gal(b1-4)GlcNAc(b1-3)Gal(b1-4)GlcNAc
# Procedure, shortened: as §1
# [10] = biological target: Fuc(a1-2)[GalNAc(a1-3)]Gal(b1-4)GlcNAc(b1-3)GalNAc
# Procedure, shortened: as §1
# [11] = biological target: Fuc(a1-2)[GalNAc(a1-3)]Gal(b1-4)GlcNAc(b1-3)[Fuc(a1-2)[GalNAc(a1-3)]Gal(b1-4)GlcNAc(b1-6)]GalNAc
# Procedure, shortened: as §1
# [12] = biological target: Fuc(a1-2)[GalNAc(a1-3)]Gal(b1-4)GlcNAc(b1-6)GalNAc
# Procedure, shortened: as §1
# [13] = biological target: Fuc(a1-2)[GalNAc(a1-3)]Gal(b1-4)[Fuc(a1-3)]GlcNAc
# Procedure, shortened: as §1
# [14] = biological target: Fuc(a1-2)[GalNAc(a1-3)]Gal(b1-4)[Fuc(a1-3)]GlcNAc(b1-3)GalNAc
# Procedure, shortened: as §1
# [15] = biological target: Fuc(a1-2)[GalNAc(a1-4)]Gal(b1-4)GlcNAc
# Procedure, shortened: as §1
# [16] = biological target: Fuc(a1-2)[GalNAc(b1-3)]Gal
# Procedure, shortened: as §1
# [17] = biological target: Fuc(a1-3)GlcNAc
# Procedure, shortened: as §1
# [18] = biological target: Fuc(a1-3)[Gal(b1-4)]Glc6S
# Procedure, shortened: as §1
# [19] = biological target: Fuc(a1-3)[Gal(b1-4)]GlcNAc
# Procedure, shortened: as §1
# [20] = biological target: Fuc(a1-3)[Gal(b1-4)]GlcNAc(b1-2)Man
# Procedure, shortened: as §1
# [21] = biological target: Fuc(a1-3)[Gal(b1-4)]GlcNAc(b1-2)Man(a1-3)[Fuc(a1-3)[Gal(b1-4)]GlcNAc(b1-2)Man(a1-6)]Man(b1-4)GlcNAc(b1-4)GlcNAc
# Procedure, shortened: as §1
# [22] = biological target: Fuc(a1-3)[Gal(b1-4)]GlcNAc(b1-2)Man(a1-3)[Fuc(a1-3)[Gal(b1-4)]GlcNAc(b1-2)Man(a1-6)]Man(b1-4)GlcNAc(b1-4)[Fuc(a1-6)]GlcNAc
# Procedure, shortened: as §1
# [23] = biological target: Fuc(a1-3)[Gal(b1-4)]GlcNAc(b1-3)Gal(b1-3)[Fuc(a1-4)]GlcNAc
# Procedure, shortened: as §1
# [24] = biological target: Fuc(a1-3)[Gal(b1-4)]GlcNAc(b1-3)Gal(b1-4)[Fuc(a1-3)]GlcNAc
# Procedure, shortened: as §1
# [25] = biological target: Fuc(a1-3)[Gal(b1-4)]GlcNAc(b1-3)Gal(b1-4)[Fuc(a1-3)]GlcNAc(b1-3)Gal(b1-4)[Fuc(a1-3)]GlcNAc
# Procedure, shortened: as §1
# [26] = biological target: Fuc(a1-3)[Gal(b1-4)]GlcNAc(b1-3)GalNAc
# Procedure, shortened: as §1
# [27] = biological target: Fuc(a1-3)[Gal(b1-4)]GlcNAc(b1-6)GalNAc
# Procedure, shortened: as §1
# [28] = biological target: Fuc(a1-3)[Gal(b1-4)]GlcNAc(b1-6)[Gal(b1-3)GlcNAc(b1-3)]Gal(b1-4)Glc
# Procedure, shortened: as §1
# [29] = biological target: Fuc(a1-3)[Gal(b1-4)]GlcNAc6S
# Procedure, shortened: as §1
# [30] = biological target: Fuc(a1-3)[Gal3S(b1-4)]Glc
# Procedure, shortened: as §1
# [31] = biological target: Fuc(a1-3)[Gal3S(b1-4)]GlcNAc
# Procedure, shortened: as §1
# [32] = biological target: Fuc(a1-3)[Gal3S(b1-4)]GlcNAc6S
# Procedure, shortened: as §1
# [33] = biological target: Fuc(a1-3)[GalNAc(b1-4)]GlcNAc
# Procedure, shortened: as §1
# [34] = biological target: Fuc(a1-3)[GalNAc(b1-4)]GlcNAc6S
# Procedure, shortened: as §1
# [35] = biological target: Fuc(a1-4)GlcNAc
# Procedure, shortened: as §1
# [36] = biological target: Fuc(b1-3)GlcNAc
# Procedure, shortened: as §1
# [37] = biological target: Gal(a1-2)Gal
# Procedure, shortened: as §1
binder,measurement,setting,value
B1,glycan array binding signal (z-score),[1],-0.021
same,glycan array binding signal (z-score),[2],-0.134
same,glycan array binding signal (z-score),[3],-0.157
same,glycan array binding signal (z-score),[4],-0.15
same,glycan array binding signal (z-score),[5],-0.217
same,glycan array binding signal (z-score),[6],0.003
same,glycan array binding signal (z-score),[7],-0.12
same,glycan array binding signal (z-score),[8],-0.162
same,glycan array binding signal (z-score),[9],-0.101
same,glycan array binding signal (z-score),[10],-0.183
same,glycan array binding signal (z-score),[11],-0.158
same,glycan array binding signal (z-score),[12],-0.117
same,glycan array binding signal (z-score),[13],-0.134
same,glycan array binding signal (z-score),[14],-0.041
same,glycan array binding signal (z-score),[15],-0.219
same,glycan array binding signal (z-score),[16],-0.068
same,glycan array binding signal (z-score),[17],-0.143
same,glycan array binding signal (z-score),[18],-0.162
same,glycan array binding signal (z-score),[19],-0.09
same,glycan array binding signal (z-score),[20],-0.188
same,glycan array binding signal (z-score),[21],-0.154
same,glycan array binding signal (z-score),[22],-0.074
same,glycan array binding signal (z-score),[23],-0.144
same,glycan array binding signal (z-score),[24],-0.126
same,glycan array binding signal (z-score),[25],-0.14
same,glycan array binding signal (z-score),[26],-0.098
same,glycan array binding signal (z-score),[27],-0.12
same,glycan array binding signal (z-score),[28],-0.06
same,glycan array binding signal (z-score),[29],-0.124
same,glycan array binding signal (z-score),[30],-0.051
same,glycan array binding signal (z-score),[31],-0.177
same,glycan array binding signal (z-score),[32],-0.051
same,glycan array binding signal (z-score),[33],-0.177
same,glycan array binding signal (z-score),[34],-0.169
same,glycan array binding signal (z-score),[35],-0.097
same,glycan array binding signal (z-score),[36],-0.158
same,glycan array binding signal (z-score),[37],-0.126

# Source: the supplement of paper PMC8728848
